Values marked as one replicate rest on one cluster of the flow cell; about a third of the high ones do not repeat.
tested on: ATP; assay: switch fluorescence ratio, 500 uM ATP over buffer (Cy3 cluster intensity, sum of 5 cycles each) (fold (ratio)); higher = stronger signal-on switching upon ATP binding; sequences stand for … in TCGTCGGCAGCGTCAGATGTGTATAAGAGACAGTTTTTTTTTTTTTTTTTTTTTTTTT…TC; settings: aptamer strand: ATP DNA aptamer (quencher-CACCTGGGGGAGTATTGCGGAGGAAGG + anchor), 100 nM annealed; ATP concentration: 500 uM; one replicate
Outline: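 Clusters with intensities outside 100-1000 RFU were excluded. The remaining Cy3-labelled switching-strand clusters on a modified Illumina MiSeq flow-cell had been annealed to 100 nM quencher-labelled ATP aptamer and imaged in selection buffer, then after 15 min with 500 uM ATP at 22 °C, for five cycles separated by NaOH stripping and re-annealing. The fluorescence ratio, averaged per switch-domain sequence, is each cluster's summed target-cycle Cy3 intensity over its summed buffer-cycle Cy3 intensity.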
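Note: ATP exposure 15 min at 22 °C before imaging.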

Sequence	switch fluorescence ratio
GTACATAAGT	1.05
GTACCCTCCG	2.06
GTACCTCAAA	1.01
GTACGAAGTA	0.983
GTACGCGCAG	1.03
GTACGGCTGC	1.09
GTACGTCACA	1.75
GTACTATCGG	1.01
GTACTGCCAG	1.01
GTACTTATCG	1
GTACTTATGT	1.03
GTACTTTTCC	1.18
GTAGAAGAAG	1.16
GTAGCAAGA	1.66
GTAGCTAGGT	0.991
GTAGGAACCA	1.02
GTAGGATGCT	0.996
GTAGGGCCAT	1.01
GTAGGGCTTA	1.01
GTAGGGTGAT	1.01
GTAGGTACTG	1.01
GTAGGTCGGC	1.09
GTAGTATACG	0.918
GTAGTGCGTC	1.06
GTAGTGGACA	1

Sequence	switch fluorescence ratio
GTAGTGGGCG	0.993
GTAGTTGGAC	1.12
GTAGTTGTGC	1.15
GTATAAATGA	0.972
GTATACGTGT	1
GTATAGTGGA	1.02
GTATATATGC	1
GTATCAGGAG	0.964
GTATCAGTCG	0.957
GTATCGGCGT	1
GTATCTCGTC	1.02
GTATGAGAGC	1.03
GTATGAGCTG	0.957
GTATGAGGGT	0.938
GTATGCCATT	0.991
GTATGGTGGT	0.996
GTATGGTTTT	1
GTATGTATAC	1.08
GTATGTCGG	0.989
GTATGTGCGT	0.957
GTATGTGGGC	1.08
GTATTCCATT	0.994
GTATTCGCGC	0.993
GTATTGGGAT	0.992
GTATTTCTGC	0.899

Sequence	switch fluorescence ratio
GTCAAAATGT	1.01
GTCAACGTCC	1.05
GTCAACGTGG	0.979
GTCAATGGCT	1.01
GTCAATGTTT	1.02
GTCAATTTTT	0.996
GTCACCCAGC	1.27
GTCACCGTTT	0.992
GTCAGTTCTT	0.968
GTCATAAATC	0.977
GTCATATACG	1.1
GTCATATGTT	1.03
GTCATGCTCG	0.981
GTCATGGAAG	0.992
GTCATTGTCG	1.05
GTCATTTCAT	0.992
GTCCATTGTC	0.97
GTCCCACCTA	1.01
GTCCCAGGG	1.31
GTCCCATGGC	0.985
GTCCCCGCCT	1.18
GTCCCGCCAA	1.67
GTCCCGTCAG	1.05
GTCCGAGGAA	1.05
GTCCGCCTTT	1.1

Sequence	switch fluorescence ratio
GTCCGCGGGC	1.08
GTCCTATGGA	0.946
GTCCTCTCGA	1.07
GTCCTCTTCT	1.02
GTCCTGTGTG	1.05
GTCCTTTATA	0.98
GTCGACTGAG	1.01
GTCGAGCCGA	1.05
GTCGAGGGAT	0.983
GTCGATAGCT	0.973
GTCGATGTCG	0.928
GTCGCAAGTC	1.77
GTCGCATACT	3.13
GTCGCCGGGA	1.05
GTCGCCTTTA	1.02
GTCGCGGATA	1.01
GTCGCGGTAT	0.975
GTCGCGTTCA	0.989
GTCGCTGTCT	1.03
GTCGCTTTTG	0.993
GTCGGAGTTC	0.982
GTCGGATGGG	0.94
GTCGGCAGTA	0.942
GTCGGCGGTC	0.945
GTCGGGTCGG	1.01
